Experimental findings from the supplement of paper PMC10681739 are described below.

The full ranking holds about 2,700 sequences; the median of “arbitrary fluorescence units” is about 4,100, and the highest 2% start at about 54,000. The list shows a part of the results.

The target in this test is T1, ETS1 (UniProt P14921).
T1 sequence: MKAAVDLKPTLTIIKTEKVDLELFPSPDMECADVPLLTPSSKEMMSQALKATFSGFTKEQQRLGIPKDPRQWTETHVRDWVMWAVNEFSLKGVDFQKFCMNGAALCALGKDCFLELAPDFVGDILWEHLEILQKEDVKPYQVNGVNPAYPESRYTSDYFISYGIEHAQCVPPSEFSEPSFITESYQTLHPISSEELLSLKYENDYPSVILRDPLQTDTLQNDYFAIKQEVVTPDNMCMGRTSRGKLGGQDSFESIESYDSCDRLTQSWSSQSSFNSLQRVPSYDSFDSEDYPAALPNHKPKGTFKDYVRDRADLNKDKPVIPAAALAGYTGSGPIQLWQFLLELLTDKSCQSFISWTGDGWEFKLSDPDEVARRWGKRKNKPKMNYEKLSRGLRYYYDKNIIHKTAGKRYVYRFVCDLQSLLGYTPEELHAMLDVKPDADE
Nature of the test: ETS1 binding intensity (PBM fluorescence) (arbitrary fluorescence units); higher = stronger binding. The conditions noted are these: ETS1 concentration 10 nM. As for the experimental part: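 gcPBM on wild-type 36-bp genomic probes with two neighbouring ETS1 sites (4-24 bp apart). Recombinant human ETS1 (10 nM) was detected with anti-ETS1 antibody fluorescence. Values are medians over 3 replicate spots. The probes sit in constant array flanks that are not printed.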
In the case of CAAGCTCAGGAAGAAGCCACAGCCGGAAGTTCACCT, the ETS1 binding intensity is 3010.

In turn, TGCATTTCCTCCCCTCAGGTTATTCCCTTCCGTTGC gave an ETS1 binding intensity of 15300. The sequence TCCCTGCCTGGCTTCCTGGCATCCTGCCTCTAACCT had an ETS1 binding intensity of 4480. GTCGAGGCTTCCCGTCGCCGGCACTTCCTCTTGCGG: the ETS1 binding intensity amounted to 3860. Turning to GGAACGGAAGCCGGGAGGGAACGAGGGCGGAAGCGG, the ETS1 binding intensity turned out to be 3190. For CGTCCGGATGCCCCTCCCGGCCGCCTCTTCCTGCCG, the ETS1 binding intensity was 1980. Turning to CCCCACATCCGGTGCGGCGACGCCACTTCCGCCCAC, the ETS1 binding intensity came out at 78100.

The sequence GTGCCGGGATGTTGCAGCTCTCGGCGAGGAAATGTC registered an ETS1 binding intensity of 270.

The sequence GAGGATATTGCTTCCTGGACAGGAACTGCTTCTCAG displayed an ETS1 binding intensity of 5440. CGGGTTCCGGTCAAGCCCACAGAGAACCGGAAGTCC yielded an ETS1 binding intensity of 17100. The sequence CATCCTTGGCATTTCCTCTGAGGAAGCTCGCACCCC displayed an ETS1 binding intensity of 3550. On to GTTCCCAGGAAGTAGCTTCTTAGGCAGGATGTGGCA, for which the ETS1 binding intensity came out at 3930. As to GTATTTCCTACCAATTGTGACGTCACCCTTCCTCCC, the ETS1 binding intensity is 5550. Consider GCGGTTACTTCCGGTCACTTTCGCCGGAACCTGACT, for which the ETS1 binding intensity is 86200. Turning to TGTGACTTCCTGACGCCCGTCCAGTCCGGAACCTCC, the ETS1 binding intensity was found to be 15700. The result for TAACAGGAAGCATGACTGGGAGGTCTCAGGAAACTT reads 2110. In turn, GAGGCAGGGCTTCCTGCCCGGCAGGAAGGACTCGGC gave an ETS1 binding intensity of 14600. With CAGACCCGAGAGGAAATCAGTTTCCCGGACCTTTGA, the ETS1 binding intensity is 1020. In turn, CTATGTAGTAAGCGGATACTTCCGGGCCTTGTCTTG showed an ETS1 binding intensity of 8930. The sequence CAACAGGAAGTCTCATGCGTTGCTGGCGGAACTGCA displayed an ETS1 binding intensity of 8660. The result for CTCGCAGGCTTCCCGGCTGCAACTTCCGGCGCATGC reads 14600; that for TCACCAGGAAGCAGAGTTCACCCTGGCGGAAGAGGT, 533. In turn, TGCCGGAGGAAGTCCCAGCCTCAGGTTTCCGGGGCT displayed an ETS1 binding intensity of 941.

On to GGGCATTTCCTCCCTAACTCAATTTCAGGAAGCAGG, for which the ETS1 binding intensity came to 12500. CATTAGCAGTCAGGAAGCTCAGGAAGATTCAAGAGA: the ETS1 binding intensity stood at 241. Sequence GAGCCGTTTCCCTCTGTGCCTCCCTCGGAAACCCGC displayed an ETS1 binding intensity of 650. Regarding AACCCGGAAGCACCGTGGCCGGCGCGCCGGAAATGA, the ETS1 binding intensity was 7740. CTCAACATTCTTCCTGGCCCTGTTTCCTGTGAAATG: the ETS1 binding intensity was 3760. CAACAGGATACCGCCCTTGGTGAGGCTTTCCTGCTA returned an ETS1 binding intensity of 991. GACAGGAAGTGCCCTCCTAAAGGCTGCAGGATATGA returned an ETS1 binding intensity of 18700. In turn, GACTTTGTTTCCTCCATTCTACCAGGAAACAGACCA showed an ETS1 binding intensity of 2280. To ACAAGAGGAAGCACCAGGGTCAGTCAGGAAGTGGGC belongs 671. GAGGCGGAAGTGGCGGGCTCTGTGGGCGGAAGGGGC displayed an ETS1 binding intensity of 8430. Sequence TGGGGTCTTCCGGTTGGACCCCTGCTTCCGCTGATT gave an ETS1 binding intensity of 24400. Turning to GCGCTTCCTGCCCGCCGGGCCGCCGCGTTTCCTGGG, the ETS1 binding intensity turned out to be 41500. To GTTCAGCTTTCAGGATGTAACATCCCTGTTGCTGGC belongs 850; to TTACTTCCGTTTGTTTAACAGCTGGCCCGGAAGTTT, 35300; to GGCAAAAACCCACATCCTCTTCCGCTGGCTCCACCT, 8480. The result for GCTCAGGATGTACCCCCGTGGCTGCGGTTTCCGGCG reads 2290; that for AGAAGGGAAGTGCCAGGGTAAGCAGACAGGAAGTCA, 2240.

In turn, CCCCAGCCCTGCATCCGCCCGGAAGGCGTCCCCTTA gave an ETS1 binding intensity of 6400. Consider CAGCTGACCACATCCTGGGCAGGATGGGGCAGGAGG, for which the ETS1 binding intensity stood at 5180. As to CGCGGTTTCCTTCACCAAGCAGCAATTTCCGTTGGC, the ETS1 binding intensity was found to be 3610. For TACCGCCCCGCGCTTCCGCTTCCGGTCTGGGGAGAG, the ETS1 binding intensity worked out at 34500. On to GATCGAGACCATCCTGGCTAACAGGATGAAACCCCG, for which the ETS1 binding intensity worked out at 313. The result for GTGGCGCCCGGAACACCCCGTGCCGGAAGCTCCATG reads 761; that for CTGAAACAGGAAACAGTAAAGACAGGAAGGTTATCT, 8910; that for TGCCCTGCCTGCTTCCTCCCTTCCTTTCAACCCCAA, 2350. For TGCGGCACAGGATGAATGAGCAATTCCGGGCGCGCG, the ETS1 binding intensity came out at 354.

CCCCGGATCTAGGCGGTCGTCACCGACAGGAAGCGA showed an ETS1 binding intensity of 671.

AAGTGAGTATTTCCTGCCTTGATTTCCTGACATTTC yielded an ETS1 binding intensity of 28700.

With GGTACAAACATTTCCTCTGCAGGAAGGAGCAGATGC, the ETS1 binding intensity came to 2740. The result for GGTCCAGGGGCATCCTGTGAAAGGAAGGGGCAGCAG reads 3710. For CCCACAGGATGCAGTGCCTGATGCCACTTCCGAGCA, the ETS1 binding intensity amounted to 3090.

For TCCGCGTCCCCACATCCTCCGGATGCCCAGCGGTTG, the ETS1 binding intensity turned out to be 1980. To AGTCTAGTTGCCAGGAAACAGGATGTGGGAGGGACA belongs 3800.

Turning to GAGGGCAGGAAGCAACCAGCATGGGAGGAAGATGTA, the ETS1 binding intensity was 2590.

As for CAGAGTAGGAAGCAGCTGTTCTAACTTCCGTCTTCG, the ETS1 binding intensity is 1710. As to CGCTGGGGTATTTCCGCCGGCTTCCGGCGGGGGCCG, the ETS1 binding intensity was determined as 19600.

Turning to GTTATTACGTCACATCCTGGTTCCGCCTCTGCAAGG, the ETS1 binding intensity was 4960. Regarding GAAGACAGGATGTGGTTGCTCATGCCATCCTGGTGG, the ETS1 binding intensity was found to be 10300. The result for TGCCACATCCTGTCTTTTTACCTCCTTTCCTGCTTA reads 51200; that for CTGCCCGGATCAGGAGGTGAGCAGCACTTCCTGCCC, 2100; that for AAGGTTTAAGGCCGGAAAGGGAAATGAAGGGGCCCG, 1960. Take TTGGCTCTTGCCGGAAATCGTTCCGCCCGGTGAGGT: the ETS1 binding intensity was determined as 6050.

As for TGGGCTTCCTGGCAGCCATTGTGAAAGGGAAATGTG, the ETS1 binding intensity was 6310. The result for ACGTGGAGGAAGTGAGTGCAGTCACAGGATGTAGTG reads 1730. With TCCTGAGTTTCCTGTATTTCAGGCAGGATGGCTGAT, the ETS1 binding intensity was determined as 14500. GTCTTGGGAAACGCAACATGTGGGCAGGAAACGCCT returned an ETS1 binding intensity of 279.

The sequence CTTTCTTCCTGCGCAGCCAGGTTTCTAAGGAAATGA registered an ETS1 binding intensity of 5250.

The sequence GGCGGTACCTGCGGAAGACGAGGATGTCCTGGTAGC had an ETS1 binding intensity of 214.

On to GCAGCAAGGCCACTTCCTCTTCCTGTGTAATAATAA, for which the ETS1 binding intensity amounted to 16800. GGTGGCTGAAATTTCCTTTACTTCCTTGTACAGTTG showed an ETS1 binding intensity of 1580. The sequence TCTGGCCTTCCGTGCCTGTTACCACTTCCCCTCCAG yielded an ETS1 binding intensity of 637.

For TCGCCGGCCTCCTTCCTGTGGGAAGTGCGGCTCCTT, the ETS1 binding intensity came out at 5360. CCTGCTGGTTTCCGGGGCCGGCCAGGAAGTGGAGGG gave an ETS1 binding intensity of 13400. For TCGGCCCTGCATCCTGCCTGGGCATCCTGCGCCCGG, the ETS1 binding intensity worked out at 8450. With CGACGAGCAACAGGAAATACGGATGCATTTAATCCC, the ETS1 binding intensity is 5480. Sequence GCACATTGCAGCGGAAACTACGGAAACATAGGAAAA showed an ETS1 binding intensity of 2460.

In the case of CGCAACCACAGCTTCCGCCACATCCTGCCGGGGTTC, the ETS1 binding intensity stood at 13200.
